# Among all 310,000 compounds or so, about 2,200 (0.71%) showed an effect of 50% or more. The effect is printed as a negative number. This is one part of the list.
# Biological target: human ether-à-go-go-related gene (hERG) potassium channel (human, UniProt Q12809)
# Test: primary screen, population patch clamp on CHO cells stably expressing hERG
# Chain of human ether-à-go-go-related gene (hERG) potassium channel (Q12809 whole entry, looked up): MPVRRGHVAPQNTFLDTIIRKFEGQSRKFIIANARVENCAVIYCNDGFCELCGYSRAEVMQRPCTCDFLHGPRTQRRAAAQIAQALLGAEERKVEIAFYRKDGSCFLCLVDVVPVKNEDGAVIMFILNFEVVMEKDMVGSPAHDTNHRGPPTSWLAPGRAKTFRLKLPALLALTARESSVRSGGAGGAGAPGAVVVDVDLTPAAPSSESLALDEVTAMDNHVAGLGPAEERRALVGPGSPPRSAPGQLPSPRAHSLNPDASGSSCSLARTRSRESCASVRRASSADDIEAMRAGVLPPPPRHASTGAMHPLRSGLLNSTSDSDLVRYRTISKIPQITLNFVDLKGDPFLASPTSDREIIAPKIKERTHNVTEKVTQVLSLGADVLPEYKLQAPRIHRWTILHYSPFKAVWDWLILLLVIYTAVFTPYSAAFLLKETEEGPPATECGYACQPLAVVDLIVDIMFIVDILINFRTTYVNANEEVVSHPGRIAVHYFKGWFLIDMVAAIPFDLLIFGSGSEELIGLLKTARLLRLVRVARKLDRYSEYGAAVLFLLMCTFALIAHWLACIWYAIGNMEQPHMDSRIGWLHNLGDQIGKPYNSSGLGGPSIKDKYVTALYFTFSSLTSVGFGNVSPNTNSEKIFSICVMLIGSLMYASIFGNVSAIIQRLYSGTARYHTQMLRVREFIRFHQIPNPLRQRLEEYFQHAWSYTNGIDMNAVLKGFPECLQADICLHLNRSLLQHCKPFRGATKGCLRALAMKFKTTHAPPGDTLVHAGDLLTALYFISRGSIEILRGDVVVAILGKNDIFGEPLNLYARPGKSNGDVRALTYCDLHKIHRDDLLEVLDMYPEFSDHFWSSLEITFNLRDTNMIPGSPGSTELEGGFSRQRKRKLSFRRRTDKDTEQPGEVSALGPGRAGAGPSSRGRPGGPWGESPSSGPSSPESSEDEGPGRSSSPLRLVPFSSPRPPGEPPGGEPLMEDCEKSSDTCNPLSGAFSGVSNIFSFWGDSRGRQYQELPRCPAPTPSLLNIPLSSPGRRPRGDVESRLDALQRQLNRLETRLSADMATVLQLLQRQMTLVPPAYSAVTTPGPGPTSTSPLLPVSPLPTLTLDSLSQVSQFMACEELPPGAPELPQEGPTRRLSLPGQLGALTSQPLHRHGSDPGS
row,SMILES,"hERG current change (%, negative = inhibition) at 1uM [%]"
1,Cc1cccc(N(CC(=O)Nc2c(C)n(C)n(-c3ccccc3)c2=O)S(C)(=O)=O)c1C,0.135
2,Cc1cc(=O)[nH]c(N/N=C/c2ccc(O)c(O)c2)n1,11.5
3,Cc1ccc2c(c1)N(CC(=O)N1CCCc3ccccc31)C(=O)CO2,-11.6
4,CN1CCN(C2Cc3cc(F)ccc3Sc3ccc(Cl)cc32)CC1.O=C(O)/C=C\C(=O)O (stereo not shown),10.8
5,C/C(O)=C(\C#N)c1nc2ccccc2[nH]1,-1.56
6,Cc1ccccc1NC(=S)NC12CN3CN(CN(C3)C1)C2,12.2
7,CCCCN(C(=O)c1ccc2c(c1)OCCO2)c1c(N)n(CC(C)C)c(=O)[nH]c1=O,-11.9
8,O=C(NCc1ccco1)c1sc2cc(Cl)ccc2c1Cl,12.7
9,COc1ccc(C2CC(C(F)(F)F)n3nc(C(=O)NCCN4CCOCC4)cc3N2)cc1 (stereo not shown),-11.1
10,Cl.NCCCCNCCCN,13.9
11,O=c1cc(-c2ccccc2O)nc(-c2ccccc2)[nH]1,17.7
12,COc1cc(C(=O)Nc2cccc(-c3nc4cc(C)ccc4o3)c2C)cc(OC)c1OC,13.1
13,O=C1NC(=Nc2ccccc2Cl)S/C1=C\c1cccc([N+](=O)[O-])c1,7.71
14,NC(=S)Nc1cc(Cl)ccc1Cl,6.1
15,Cc1ccccc1NC(=O)c1sc(Cl)nc1C,14.3
16,CSc1nc2ccccc2nc1N(C)S(=O)(=O)c1ccc(C)cc1,8.27
17,CC1(C)NC(=O)N(CCCC(=O)Nc2ccc(C(F)(F)F)cc2)C1=O,3.39
18,COC(=O)C(O)(CC(=O)c1ccc(OC)cc1)C(F)(F)F (stereo not shown),10.8
19,CC(=O)Oc1ccc(C(=O)[C@H]2[C@H]3C(=O)N(c4ccccc4)C(=O)[C@H]3[C@@H]3C=CC=NN32)cc1,16.4
20,CC(C)OC(=O)c1c(NC(=O)c2cnn3c2NC(c2ccccc2)CC3C(F)(F)F)sc2c1CCCC2 (stereo not shown),3.79
21,COC(=O)COc1cc(C)cc2oc(=O)c3c(c12)CCCC3,-4.18
22,COc1cccc(NC(=O)N2CCN(c3cccc(C)c3)C(C)C2)c1 (stereo not shown),0.112

row,SMILES,"hERG current change (%, negative = inhibition) at 1uM [%]"
1,Cc1cc(C)c(C)c(S(=O)(=O)N2CCC(C(=O)NCC(c3ccccc3)N(C)C)CC2)c1C (stereo not shown),0.427
2,CSc1ccc(CN(C)CC(=O)Nc2ccccc2Br)cc1,20.3
3,O=C(CN(C(=O)Cn1nnc(-c2ccc(F)cc2)n1)c1cnc2ccccc2c1)NCC1CCCO1 (stereo not shown),7.32
4,Cl.O=C(COc1ccc(F)cc1)OCCN1CCOCC1,8.2
5,Cc1ccc(C(=O)NCc2ccc3c(c2)OCO3)cc1S(=O)(=O)N1CCOCC1,-13.6
6,CC(C)OC(=O)Nc1ccc(Oc2c(F)c(F)c(F)c(F)c2F)cc1,-9.95
7,CCCc1cc(CN(C)C(=O)CC2C(=O)NCCN2Cc2ccccc2C)[nH]n1 (stereo not shown),12.4
8,Cc1ccc2oc(-c3cccc(NC(=S)NC(=O)c4cccs4)c3)nc2c1,11.9
9,CCCCc1ccc(NC(=O)N[C@@H](C)C(=O)O)cc1,3.46
10,Cc1cccc(N=Nc2c(C)[nH]n(C(N)=S)c2=O)c1C,13.5
11,CCCCCCC(C)n1cc(C(C)=O)c(=O)n(C)c1=O (stereo not shown),0.513
12,COc1ccccc1NS(=O)(=O)c1ccc(O)cc1,-0.976
13,C=CCN(CC(=O)NCC1CCCO1)C(=O)CCC(=O)Nc1cc(C)on1 (stereo not shown),8.44
14,C=C(C)C(=O)OCC(O)COc1ccc(C(C)(C)c2ccc(OCC(O)COC(=O)C(=C)C)cc2)cc1 (stereo not shown),4.91
15,O=C(CCN1C(=O)/C(=C/c2ccc(F)cc2)SC1=S)Nc1cc([N+](=O)[O-])ccc1O,12.1
16,O=c1ccc(-c2ccccc2)n[nH]1,19.8
17,Cc1cc(-c2ccc(S(=O)(=O)N(C)c3ccc(C)c(C)c3)s2)on1,15.7
18,NS(=O)(=O)c1ccc(CCNC(=O)CSc2nc3ccccc3c3nc(CCN4CCCCC4)nn23)cc1,6.63
19,CCCc1cc(=O)[nH]c(SCC(=O)N2CCC(C)CC2)n1,12.5
20,Cc1ccc(S(=O)(=O)N2CCN(C(=O)COC(=O)CSc3cc(C)ccc3C)CC2)c(C)c1,3.82
21,Cc1cc(C)c(C(=O)N(C)C2CCCN(Cc3ccccc3F)C2)o1 (stereo not shown),9.19
22,COC(=O)Nc1nc(-c2ccc(F)cc2)c(C)s1,11.3

row,SMILES,"hERG current change (%, negative = inhibition) at 1uM [%]"
1,CC1CCCN(S(=O)(=O)c2ccc(N(C(=O)c3cnccn3)C(C(=O)NC3CCCCC3)c3cccs3)cc2)C1 (stereo not shown),7.09
2,COC(=O)C1[C@H]2SC(C)(C)C(C(=O)OC)N2C(=O)N1Cc1nc2ccccc2s1 (stereo partly shown),-4.16
3,COc1ccc2nc3oc(C(=O)N4CCN(c5ccccc5F)CC4)cc3cc2c1,21.9
4,COCCNC(=O)COCc1cc(-c2ccc3c(c2)OCO3)on1,18.6
5,COCCNc1nc(SC)nc2sc3c(c12)CCN(C)C3,-42.1
6,C=C1CCN(c2ccc(C(=O)NCc3ccc(OC)cc3)cc2[N+](=O)[O-])CC1,3.7
7,CCOC(=O)N1CCN(C(=O)c2ccc(OCC)cc2)CC1,12.1
8,CCN1N=C(C)C=C(c2ccccc2)n2c1nc1ccccc12.Cl,1.53
9,CC(C)(C)C1=NN(c2ccc([N+](=O)[O-])cc2)C(c2ccccc2)C1 (stereo not shown),8.46
10,CCCn1c(SCC(=O)N2c3ccccc3CCc3ccccc32)nc2c1c(=O)n(C)c(=O)n2C,18.3
11,COCCNC(=S)Nc1ccc2nc(N3CCOCC3)cc(C)c2c1,14.9
12,CC(=O)c1ccc(S(=O)(=O)NCCCC(=O)N(C)Cc2ccc3c(c2)OCO3)cc1,-16
13,COc1ccc(N(CC(=O)N/N=C/c2ccc(OC)c(OC)c2)S(=O)(=O)c2ccccc2)cc1,17.7
14,O=C(Cn1cnc([N+](=O)[O-])c1)Nc1cc(Oc2ccc(Cl)cc2Cl)cc([N+](=O)[O-])c1,5.84
15,CCn1nnc(NC(=O)c2ccco2)n1,14.7
16,COc1cc(CCC(=O)Nc2cc(Cl)ccc2N2CCN(C)CC2)cc(OC)c1OC,6.79
17,NNC(=O)CNc1ccccc1Cl,12.2
18,Cc1ccc(N(C(=O)Cc2cccs2)C2C=CS(=O)(=O)C2)cc1Cl (stereo not shown),7.2
19,COc1cc(NC(=O)CCc2nnc3ccc(NCc4ccco4)nn23)cc(OC)c1,14.5
20,Cc1cccc(OC(=O)c2cncc(Br)c2)c1,10.1
21,Cc1ccc(-n2c(C)cc(/C=C3\SC(=O)NC3=O)c2C)cc1,10.4
22,CCCNC(=O)CCC(=O)Nc1ncc(-c2ccc(C)cc2)n1C,16.1

row,SMILES,"hERG current change (%, negative = inhibition) at 1uM [%]"
1,O=C(CN1CCN(c2ccccc2)CC1)Nc1cccc(C(F)(F)F)c1,12.4
2,Cc1ccc(C(=O)C[n+]2ccccc2C)cc1[N+](=O)[O-].[Br-],6.63
3,COc1ccc(N/N=C(/N=Nc2nc(C)cc(=O)[nH]2)c2ccccc2)cc1,-5.23
4,CCOC(=O)c1ccc(NC(=S)NC(=O)c2cncc(Br)c2)cc1,12.3
5,COc1cccc(NC(=O)Cc2csc(NC(=O)Nc3ccccc3OC)n2)c1,12.6
6,Cc1ccc2c(CC(=O)N3CCc4ccccc43)coc2c1,8.85
7,Cc1ccc(C)c(NC(=S)NNC(=O)c2csc(C)c2C)c1,5.34
8,O=C1Nc2ccccc2Nc2ccccc21,17.7
9,O=C(NCN1CCN(CCO)CC1)c1cnccn1,14.3
10,CC(Sc1nc(N)cc(=O)[nH]1)C(=O)NCC(=O)Nc1ccc(F)c(F)c1F (stereo not shown),-12.7
11,CN(C)c1ccc(/C=N/NC(=O)CNC(=O)c2ccco2)cc1,18.4
12,CCON1C(=O)CN(C(=O)OC)C1c1ccc(Cl)cc1Cl (stereo not shown),5.27
13,CC(=O)Nc1ccc(NC(=O)c2ccc(-n3c(C)ccc3C)cc2)cc1,3.14
14,CC(=O)c1ccc(NC(=O)Nc2ncn(Cc3cccc(C)c3)n2)cc1,3.63
15,CC(=O)c1ccc(-c2ccccc2OC(F)(F)F)o1,8.56
16,CC(=O)Nc1ccc(S(=O)(=O)N[C@@H](C)C(=O)Nc2ccc(N3CCOCC3)cc2)cc1,14
17,Br.N=c1n(CCN2CCOCC2)c2ccccc2n1CC(=O)c1ccc(Cl)c(Cl)c1,-69.1
18,Nc1cccc(C(=O)O)c1,10.1
19,CCN(C(=O)COC(=O)c1ccccc1NCCO)c1cccc2ccccc12,8.47
20,C/C(=N/NC(=O)CSCc1ccc(Cl)cc1)c1cccc(NC(=O)c2ccccc2)c1,8.66
21,Cc1sc2nc(CN3CCCCC3)nc(Cl)c2c1C,9.23
22,COc1ccc2c(c1)-c1c(ssc1=S)C(C)(C)N2S(=O)(=O)c1ccc(C)cc1,3.8

# From article PMC4336329 (PLoS ONE, 2015)
